Measured values: PMC5120144
These are yes or no findings as the source states them, for the method shown. For some of these results: In cells and extracts the contact can be indirect. Some binding calls cover weakened binding; strength is not graded here. For some of these results: Sequences can lack the tags named with a protein.

Chains of the proteins cited; added tags and fusions are not shown. Residues count along the entry.
UniProt Q4WZB4, residues 19-664: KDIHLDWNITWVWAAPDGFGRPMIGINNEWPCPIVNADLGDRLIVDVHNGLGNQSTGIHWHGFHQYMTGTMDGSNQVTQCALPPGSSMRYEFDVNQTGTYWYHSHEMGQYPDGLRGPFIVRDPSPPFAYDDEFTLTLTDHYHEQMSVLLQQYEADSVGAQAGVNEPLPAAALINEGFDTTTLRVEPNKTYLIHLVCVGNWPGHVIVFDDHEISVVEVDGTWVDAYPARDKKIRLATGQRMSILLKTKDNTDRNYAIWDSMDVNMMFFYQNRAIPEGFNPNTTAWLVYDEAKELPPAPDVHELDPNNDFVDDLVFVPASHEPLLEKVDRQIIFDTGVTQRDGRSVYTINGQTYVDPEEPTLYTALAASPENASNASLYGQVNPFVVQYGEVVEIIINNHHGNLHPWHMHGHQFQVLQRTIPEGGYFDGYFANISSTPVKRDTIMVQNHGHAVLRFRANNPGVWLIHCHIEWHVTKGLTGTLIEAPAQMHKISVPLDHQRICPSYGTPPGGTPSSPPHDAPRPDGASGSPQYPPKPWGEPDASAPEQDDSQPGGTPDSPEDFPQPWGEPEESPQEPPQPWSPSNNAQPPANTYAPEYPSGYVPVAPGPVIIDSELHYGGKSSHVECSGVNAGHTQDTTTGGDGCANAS
UniProt E9RBR0, residues 18-587: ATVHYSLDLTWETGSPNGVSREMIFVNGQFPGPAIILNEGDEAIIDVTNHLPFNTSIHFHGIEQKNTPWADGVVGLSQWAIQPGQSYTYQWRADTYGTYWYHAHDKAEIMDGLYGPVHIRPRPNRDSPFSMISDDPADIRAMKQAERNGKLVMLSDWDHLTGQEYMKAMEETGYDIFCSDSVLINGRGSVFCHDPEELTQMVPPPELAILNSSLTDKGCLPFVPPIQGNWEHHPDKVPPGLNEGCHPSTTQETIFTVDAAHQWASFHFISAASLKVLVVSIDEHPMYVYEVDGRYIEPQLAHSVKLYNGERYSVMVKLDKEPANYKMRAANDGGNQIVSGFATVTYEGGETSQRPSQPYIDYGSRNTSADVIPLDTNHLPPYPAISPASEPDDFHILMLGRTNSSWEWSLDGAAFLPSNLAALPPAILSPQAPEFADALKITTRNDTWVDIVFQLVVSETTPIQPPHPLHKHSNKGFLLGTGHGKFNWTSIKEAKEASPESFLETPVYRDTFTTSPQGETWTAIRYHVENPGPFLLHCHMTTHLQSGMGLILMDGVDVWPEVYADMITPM
UniProt E9QUT3: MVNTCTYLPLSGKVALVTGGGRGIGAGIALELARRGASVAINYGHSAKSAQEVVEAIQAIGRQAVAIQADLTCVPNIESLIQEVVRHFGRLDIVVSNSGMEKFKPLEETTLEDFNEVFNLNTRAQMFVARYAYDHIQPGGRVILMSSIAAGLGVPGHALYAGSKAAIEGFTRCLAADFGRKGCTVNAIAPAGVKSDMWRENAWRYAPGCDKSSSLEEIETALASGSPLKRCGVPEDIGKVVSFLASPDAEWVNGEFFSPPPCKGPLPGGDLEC
UniProt Q4WZB3: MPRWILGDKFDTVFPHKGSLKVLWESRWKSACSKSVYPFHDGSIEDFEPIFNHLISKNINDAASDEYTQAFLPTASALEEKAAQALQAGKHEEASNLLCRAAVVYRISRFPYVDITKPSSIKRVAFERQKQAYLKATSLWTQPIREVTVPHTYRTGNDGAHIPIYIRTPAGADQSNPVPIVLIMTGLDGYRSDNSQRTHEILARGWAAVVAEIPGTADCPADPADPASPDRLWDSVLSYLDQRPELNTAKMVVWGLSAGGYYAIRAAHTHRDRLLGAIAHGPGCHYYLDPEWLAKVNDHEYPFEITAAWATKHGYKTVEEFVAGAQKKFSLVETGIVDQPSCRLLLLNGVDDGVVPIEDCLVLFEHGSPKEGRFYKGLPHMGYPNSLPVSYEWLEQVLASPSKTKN

T1: Arp1-GFP (Aspergillus fumigatus), O14434
T1 chain: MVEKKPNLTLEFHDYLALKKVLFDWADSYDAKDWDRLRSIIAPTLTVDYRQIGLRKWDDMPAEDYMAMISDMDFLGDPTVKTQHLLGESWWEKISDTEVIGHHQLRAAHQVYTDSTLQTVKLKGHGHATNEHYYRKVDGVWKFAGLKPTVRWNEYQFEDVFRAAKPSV

B1: Arp1-GFP (enzyme, UniProt O14434 1-168)
chain: MVEKKPNLTLEFHDYLALKKVLFDWADSYDAKDWDRLRSIIAPTLTVDYRQIGLRKWDDMPAEDYMAMISDMDFLGDPTVKTQHLLGESWWEKISDTEVIGHHQLRAAHQVYTDSTLQTVKLKGHGHATNEHYYRKVDGVWKFAGLKPTVRWNEYQFEDVFRAAKPSV
B2: Arp1-GFP, O14434 1-168 (enzyme)
chain: MVEKKPNLTLEFHDYLALKKVLFDWADSYDAKDWDRLRSIIAPTLTVDYRQIGLRKWDDMPAEDYMAMISDMDFLGDPTVKTQHLLGESWWEKISDTEVIGHHQLRAAHQVYTDSTLQTVKLKGHGHATNEHYYRKVDGVWKFAGLKPTVRWNEYQFEDVFRAAKPSV

Legend:
[1] = molecular target: Abr1-GFP (Aspergillus fumigatus) (UniProt Q4WZB4); experiment: SEC; total proteins from vegetative hyphae of tef1-promoter GFP strains (each enzyme expressed alone); Superdex 200 10/300 GL, 25 mM HEPES pH 7.5, 300 mM NaCl, 2 mM EDTA, 1% DDM, 1% NP-40; GFP fluorescence of each fraction
[2] = molecular target: Abr2-GFP (Aspergillus fumigatus) (UniProt E9RBR0); experiment: as above
[3] = molecular target: Arp2-GFP (Aspergillus fumigatus) (UniProt E9QUT3); experiment: as above
[4] = molecular target: Ayg1-FLAG (Aspergillus fumigatus) (UniProt Q4WZB3); experiment: co-IP; total proteins from conidia; beads coated with anti-FLAG antibodies, Western blots probed with anti-GFP antibodies; tagged proteins under their native promoters
[5] = molecular target: Abr1-FLAG (Aspergillus fumigatus) (UniProt Q4WZB4); experiment: as above
[6] = molecular target: Ayg1-GFP (Aspergillus fumigatus) (UniProt Q4WZB3); experiment: SEC; total proteins from vegetative hyphae of tef1-promoter GFP strains (each enzyme expressed alone); Superdex 200 10/300 GL, 25 mM HEPES pH 7.5, 300 mM NaCl, 2 mM EDTA, 1% DDM, 1% NP-40; GFP fluorescence of each fraction
[7] = molecular target: T1, Arp1-GFP (Aspergillus fumigatus), O14434; experiment: as above; conditions: remark: other sources report otherwise

| Molecule | binding [4] | binding [5] | further results |
| --- | --- | --- | --- |
| Abr1-GFP (from UniProt Q4WZB4 19-664) (enzyme) |  |  | binding [1]: no binding |
| Abr2-GFP (from UniProt E9RBR0 18-587) (enzyme) |  |  | binding [2]: no binding |
| Arp2-GFP (from UniProt E9QUT3 1-273) (enzyme) | binds | binds | binding [3]: no binding |
| Ayg1-GFP (from UniProt Q4WZB3 1-406) (enzyme) |  | binds | binding [6]: no binding |
| B1 | binds | binds |  |
| B2 |  |  | binding [7]: no binding |
